Experimental data taken from the supplement of paper PMC12217912.
Some of the results follow. Sequences were assembled here from the parent chain. Inactive controls read about 0.05.

B1: TEV protease; numbered along this chain (parent)
chain: MGESLFKGPRDYNPISSSICHLTNESDGHTTSLYGIGFGPFIITNKHLFRRNNGTLVVQSLHGVFKVKDTTTLQQHLVDGRDMIIIRMPKDFPPFPQKLKFREPQREERICLVTTNFQTKSMSSMVSDTSCTFPSGDGIFWKHWIQTKDGQCGSPLVSTRDGFIVGIHSASNFTNTNNYFTSVPKNFMELLTNQEAQQWVSGWRLNADSVLWGGHKVFMVKPEEPFQPVKEATQL

Variants of: B1
Experiment: raw area under fraction-flipped curve 0-4 h after induction (AUC4h, not background-subtracted), DNA-recorder readout of cleavage of the substrate (dimensionless); higher = more cleavage of the substrate by the protease variant
Details: temperature: 34 °C; time window: 0-4 h after rhamnose induction
Experimental: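 In vivo DNA recorder in E. coli TOP10(DE3) ΔrhaA at 34 °C. Each TEVp single-site mutant (parent TEVp 0) is paired with a single-site variant of the 7-mer TEVs (canonical ENLYFQ|S). The substrate sits between flexible linkers in a Bxb1-sfGFP-TEVs-SsrA fusion, so cleavage stabilises Bxb1 and speeds flipping of a recombination array, read by NGS. The value is the raw area under the fraction-flipped curve over 0-4 h after rhamnose induction (AUC4h), with ≥20 reads per time point. It is not background-subtracted; inactive controls average about 0.047.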
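Note: Bxb1 expression induced with 0.2% (w/v) L-rhamnose at OD600 near 0.5, cultures sampled hourly, flipped fraction per protease–substrate barcode pair counted by paired-end Illumina sequencing.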

Variant | area with substrate ENLYFQA | area with substrate ENLYFQC | area with substrate ENLYFQD | area with substrate ENLYFQG | area with substrate ENLYFQH | area with substrate ENLYFQI | area with substrate ENLYFQK | area with substrate ENLYFQL | area with substrate ENLYFQM | area with substrate ENLYFQN | area with substrate ENLYFQP | area with substrate ENLYFQR | area with substrate ENLYFQS | area with substrate ENLYFQT | area with substrate ENLYFQV | area with substrate ENLYFQW | area with substrate ENLYFQE | area with substrate ENLYFQF | area with substrate ENLYFQQ | area with substrate ENLYFQY
D27C | 0.0931 | 0.133 | 0.065 | 0.0882 | 0.0742 | 0.0533 | 0.0694 | 0.0567 | 0.0808 | 0.0627 | 0.0602 | 0.0409 | 0.0974 | 0.041 | 0.0662 | 0.055 | – | – | – | –
G28D | 0.102 | 0.123 | 0.0647 | 0.0846 | 0.0697 | 0.053 | 0.0712 | 0.0558 | 0.0889 | 0.0783 | – | 0.0645 | 0.0993 | 0.0555 | 0.0556 | 0.071 | 0.0679 | 0.0639 | 0.0736 | 0.0778
G28I | 0.0729 | 0.0852 | 0.0572 | 0.0767 | 0.0565 | 0.0708 | 0.0586 | 0.0556 | 0.0887 | 0.0621 | – | 0.0583 | 0.073 | 0.0577 | 0.0532 | 0.0704 | – | 0.0635 | 0.0737 | 0.0778
H29C | 0.126 | 0.123 | 0.0924 | 0.119 | – | 0.068 | – | 0.044 | 0.0903 | 0.07 | 0.0714 | 0.0646 | 0.111 | 0.0833 | 0.0629 | 0.0615 | – | – | – | 0.0972
H29N | 0.0873 | 0.0908 | – | 0.0896 | 0.0806 | 0.06 | 0.0503 | – | 0.0884 | 0.0663 | 0.0422 | 0.069 | 0.0974 | 0.064 | 0.0582 | 0.0621 | 0.052 | 0.14 | – | 0.0857
T30L | 0.0931 | 0.107 | 0.0893 | 0.0906 | 0.104 | 0.0631 | – | – | 0.0993 | 0.0733 | 0.0577 | 0.0659 | 0.103 | 0.0644 | 0.0574 | 0.0654 | – | 0.0783 | – | –
T30Y | 0.0992 | – | 0.0786 | 0.0897 | 0.0863 | 0.0598 | 0.0609 | 0.0648 | 0.0846 | 0.0823 | – | 0.0611 | 0.102 | 0.0672 | 0.0579 | 0.0665 | – | – | 0.0911 | 0.0846
L33I | 0.0754 | 0.0766 | 0.0558 | 0.0829 | – | 0.0503 | 0.0669 | 0.0593 | 0.057 | 0.0692 | 0.0656 | 0.0573 | 0.0844 | 0.0535 | 0.056 | 0.0509 | – | 0.049 | 0.0835 | 0.0406
L33M | 0.0633 | 0.0907 | – | – | 0.0638 | 0.0605 | 0.0587 | 0.059 | 0.0805 | 0.053 | – | 0.0511 | 0.0778 | 0.0417 | 0.0504 | – | – | 0.0564 | – | 0.0685
I36H | 0.0506 | 0.0532 | 0.0495 | 0.0277 | 0.042 | 0.0569 | 0.0447 | 0.0396 | 0.0421 | 0.0284 | 0.0498 | 0.0463 | 0.0465 | – | – | – | – | 0.0402 | – | 0.051
I36W | 0.0535 | – | 0.0995 | 0.0621 | 0.0526 | – | 0.0432 | 0.0597 | 0.0525 | 0.0481 | 0.0597 | 0.0445 | 0.0565 | 0.0556 | – | – | – | 0.0445 | – | –
I36Y | 0.0398 | 0.0757 | – | 0.053 | 0.0521 | 0.0589 | 0.0482 | – | – | 0.0421 | – | 0.0473 | 0.0524 | 0.0523 | 0.0539 | 0.0462 | – | – | – | –
G37I | 0.0767 | 0.0799 | – | 0.0786 | – | – | 0.0633 | – | 0.069 | 0.0565 | – | 0.0609 | 0.0802 | – | 0.0481 | 0.0531 | 0.07 | 0.0912 | – | 0.072
G37T | 0.0763 | 0.0919 | – | 0.0631 | 0.0535 | – | 0.0448 | – | 0.0743 | 0.055 | – | 0.0406 | 0.082 | 0.0408 | 0.0455 | 0.0543 | – | 0.0605 | 0.0328 | 0.0763
G37W | 0.0681 | 0.0838 | 0.0507 | 0.131 | – | 0.0543 | 0.0409 | 0.0435 | 0.0694 | 0.0626 | 0.0458 | 0.0516 | 0.0789 | 0.0595 | – | 0.061 | 0.047 | 0.0711 | 0.0568 | 0.0562
F38W | 0.0799 | 0.108 | 0.0693 | 0.101 | 0.096 | 0.0636 | 0.0557 | 0.0616 | 0.0891 | 0.0801 | 0.0752 | 0.0584 | 0.112 | 0.0686 | 0.0531 | 0.0544 | 0.0629 | – | – | 0.0866
F38Y | 0.101 | – | – | 0.0947 | – | 0.0593 | – | 0.0599 | 0.0688 | 0.087 | – | 0.0546 | 0.103 | 0.0708 | 0.0516 | – | – | 0.0651 | 0.0799 | 0.0839
G39E | 0.0519 | 0.0499 | 0.0435 | 0.057 | – | 0.0438 | 0.0445 | 0.0209 | 0.0442 | 0.0348 | 0.0392 | – | 0.0456 | 0.0238 | – | 0.0497 | – | – | – | 0.0346
G39I | 0.0507 | 0.0387 | 0.0467 | 0.0464 | 0.0432 | – | 0.0503 | 0.0371 | 0.0414 | – | 0.0505 | 0.0304 | 0.0459 | 0.0431 | – | 0.0444 | – | – | – | 0.0354
G39M | 0.0432 | 0.0371 | 0.0419 | 0.0415 | 0.0403 | 0.0417 | 0.042 | 0.037 | 0.0484 | 0.0444 | 0.0388 | 0.0335 | 0.043 | 0.0396 | 0.0379 | 0.0312 | 0.0631 | – | 0.03 | –
G39R | 0.0367 | 0.0456 | – | 0.0482 | – | 0.0472 | 0.045 | 0.0416 | – | – | – | 0.0466 | 0.0477 | 0.0417 | 0.0594 | 0.0423 | – | – | – | 0.0602
F41I | 0.09 | 0.105 | 0.0867 | 0.0947 | 0.0826 | 0.0516 | 0.053 | 0.0672 | 0.0919 | 0.0718 | 0.0591 | 0.0574 | 0.0947 | 0.0623 | – | 0.0616 | 0.0642 | – | 0.0692 | 0.0655
I42A | 0.0573 | – | 0.0559 | – | 0.0703 | 0.0322 | 0.0525 | – | – | 0.051 | 0.0194 | 0.0528 | 0.0684 | 0.0458 | – | 0.0501 | – | – | – | 0.0473
